Whole data set: some 81,000 sequences, median “one-hybrid fitness for binding parS DNA” near -0.17, cut for the highest 2% near 0.51. Some of the results follow. Some results are limits rather than exact numbers.

First the molecules themselves.
B1: Caulobacter ParB omega fusion; a variant is named by its letters at X, in order, B8GW30 (parent)
chain: MESVVVGEPGMSEGRRGLGRGLSALLGEVDAAPAQAPGEQLGGSREAPIEILQRNPDQPRRTFREEDLEDLSNSIREKGVLQPILVRPSPDTAGEYQIVAGERAWRAAQRAGLKTVPIMVRELDDLAVLEIGIIENVQRADLNVLEEALSYKVLMEKFERTQENIAQTIGKSXSHVANXMRLLXLPDEVQSYLVSGELTAXHARAIAAAADPVALAKQIIEGGLSVRETEALARKAPNLSAGKSKGGRPPRVKDTDTQALESDLSSVLGLDVSIDHRGSTGTLTITYATLEQLDDLCNRLTRGI

Variants of B1 are the subject of the test. Put plainly: one-hybrid fitness for binding parS DNA (scaled: cognate 1, non-cognate 0); higher = stronger binding. The conditions noted are these: with parS DNA site. The procedure, abridged: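 Bacterial one-hybrid selection in E. coli USO rpoZ- hisB- pyrF- with a HIS3 reporter carrying the site 19 bp from the promoter, screening Caulobacter ParB libraries with four specificity codons randomised (NNS). Cells grew 48 hours at 37°C on M9-minus-histidine plus 0.1 mM IPTG and 5 mM 3-AT. Plasmids before and after selection were Illumina-sequenced, three replicate libraries pooled, and variants under 10 reads dropped. Fitness is the log change in variant-to-wild-type read ratio, rescaled to cognate 1, non-cognate 0.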
As for IHTG, the “one-hybrid fitness for binding parS DNA” value is ≤ 0.2.

In the case of DDWR, the “one-hybrid fitness for binding parS DNA” value is ≤ 0.2.

Take SAHW: the “one-hybrid fitness for binding parS DNA” value was ≤ 0.2.

QNKN: the “one-hybrid fitness for binding parS DNA” value was ≤ 0.2.

On to INIS, for which the “one-hybrid fitness for binding parS DNA” value was ≤ 0.2.

Take THHL: the “one-hybrid fitness for binding parS DNA” value is ≤ 0.2.

Consider TQRN, for which the “one-hybrid fitness for binding parS DNA” value is ≤ 0.2.

In the case of GWQS, the “one-hybrid fitness for binding parS DNA” value was ≤ 0.2.

Consider SPHK, for which the “one-hybrid fitness for binding parS DNA” value is ≤ 0.2.

Regarding GNRN, the “one-hybrid fitness for binding parS DNA” value is ≤ 0.2.

As for ALCV, the “one-hybrid fitness for binding parS DNA” value was ≤ 0.2.

MHYR: the “one-hybrid fitness for binding parS DNA” value was ≤ 0.2.

Consider HCNY, for which the “one-hybrid fitness for binding parS DNA” value is ≤ 0.2.

Consider QISV, for which the “one-hybrid fitness for binding parS DNA” value was ≤ 0.2.

NRHT: the “one-hybrid fitness for binding parS DNA” value was ≤ 0.2.

Consider HSML, for which the “one-hybrid fitness for binding parS DNA” value is ≤ 0.2.

Take GTTW: the “one-hybrid fitness for binding parS DNA” value is ≤ 0.2.

Regarding IRSN, the “one-hybrid fitness for binding parS DNA” value was ≤ 0.2.

Take IKVW: the “one-hybrid fitness for binding parS DNA” value was ≤ 0.2.

For the variant ARRH, the “one-hybrid fitness for binding parS DNA” value is ≤ 0.2.

In the case of PHSI, the “one-hybrid fitness for binding parS DNA” value is ≤ 0.2.

With RCYK, the “one-hybrid fitness for binding parS DNA” value amounted to 0.262.

HLQN: the “one-hybrid fitness for binding parS DNA” value was ≤ 0.2.

On to FASW, for which the “one-hybrid fitness for binding parS DNA” value was ≤ 0.2.

With HEIY, the “one-hybrid fitness for binding parS DNA” value was ≤ 0.2.

For the variant YTNC, the “one-hybrid fitness for binding parS DNA” value is ≤ 0.2.

Regarding KRWH, the “one-hybrid fitness for binding parS DNA” value is ≤ 0.2.

On to TRFH, for which the “one-hybrid fitness for binding parS DNA” value is ≤ 0.2.

Take SDPF: the “one-hybrid fitness for binding parS DNA” value is ≤ 0.2.

For PTIW, the “one-hybrid fitness for binding parS DNA” value was ≤ 0.2.

NLMN: the “one-hybrid fitness for binding parS DNA” value is ≤ 0.2.

For the variant TYTI, the “one-hybrid fitness for binding parS DNA” value was ≤ 0.2.

For the variant WAGE, the “one-hybrid fitness for binding parS DNA” value is ≤ 0.2.

Regarding HPGG, the “one-hybrid fitness for binding parS DNA” value was ≤ 0.2.

Turning to CGYC, the “one-hybrid fitness for binding parS DNA” value is ≤ 0.2.

PLNN: the “one-hybrid fitness for binding parS DNA” value was ≤ 0.2.

In the case of HVCT, the “one-hybrid fitness for binding parS DNA” value is ≤ 0.2.

RYKV: the “one-hybrid fitness for binding parS DNA” value is ≤ 0.2.

Consider CSKH, for which the “one-hybrid fitness for binding parS DNA” value was ≤ 0.2.

RCVT: the “one-hybrid fitness for binding parS DNA” value amounted to 0.843.

For the variant RGYY, the “one-hybrid fitness for binding parS DNA” value was ≤ 0.2.

PGRW: the “one-hybrid fitness for binding parS DNA” value is ≤ 0.2.

Consider ETTA, for which the “one-hybrid fitness for binding parS DNA” value was ≤ 0.2.

AEFG: the “one-hybrid fitness for binding parS DNA” value is ≤ 0.2.

On to GNFG, for which the “one-hybrid fitness for binding parS DNA” value was ≤ 0.2.

Turning to MQSV, the “one-hybrid fitness for binding parS DNA” value is ≤ 0.2.

On to QHRE, for which the “one-hybrid fitness for binding parS DNA” value is ≤ 0.2.

Consider EWST, for which the “one-hybrid fitness for binding parS DNA” value is ≤ 0.2.

On to PQVG, for which the “one-hybrid fitness for binding parS DNA” value was ≤ 0.2.

Turning to LSHS, the “one-hybrid fitness for binding parS DNA” value is ≤ 0.2.

On to LRYM, for which the “one-hybrid fitness for binding parS DNA” value is ≤ 0.2.

Consider PSLE, for which the “one-hybrid fitness for binding parS DNA” value is ≤ 0.2.

Take DTDW: the “one-hybrid fitness for binding parS DNA” value is ≤ 0.2.

As for SAVG, the “one-hybrid fitness for binding parS DNA” value is ≤ 0.2.

For GHTA, the “one-hybrid fitness for binding parS DNA” value is ≤ 0.2.

Turning to NRIT, the “one-hybrid fitness for binding parS DNA” value was ≤ 0.2.

As to QTAW, the “one-hybrid fitness for binding parS DNA” value was ≤ 0.2.

In the case of TDYT, the “one-hybrid fitness for binding parS DNA” value stood at 0.223.

With MITC, the “one-hybrid fitness for binding parS DNA” value is ≤ 0.2.

With HRPD, the “one-hybrid fitness for binding parS DNA” value is ≤ 0.2.

Regarding EPTE, the “one-hybrid fitness for binding parS DNA” value was ≤ 0.2.

SWKL: the “one-hybrid fitness for binding parS DNA” value was ≤ 0.2.

As to TPNE, the “one-hybrid fitness for binding parS DNA” value is ≤ 0.2.

As for SMAA, the “one-hybrid fitness for binding parS DNA” value was ≤ 0.2.

VADE: the “one-hybrid fitness for binding parS DNA” value was ≤ 0.2.

Regarding QDVE, the “one-hybrid fitness for binding parS DNA” value was ≤ 0.2.

For the variant QDYS, the “one-hybrid fitness for binding parS DNA” value is ≤ 0.2.

As to SGAK, the “one-hybrid fitness for binding parS DNA” value was ≤ 0.2.

For HCVR, the “one-hybrid fitness for binding parS DNA” value is ≤ 0.2.

In the case of VWVS, the “one-hybrid fitness for binding parS DNA” value is ≤ 0.2.

In the case of VACT, the “one-hybrid fitness for binding parS DNA” value is ≤ 0.2.

Consider TYYH, for which the “one-hybrid fitness for binding parS DNA” value is ≤ 0.2.

HNHV: the “one-hybrid fitness for binding parS DNA” value is ≤ 0.2.

Take QLKD: the “one-hybrid fitness for binding parS DNA” value is ≤ 0.2.

As for VNRS, the “one-hybrid fitness for binding parS DNA” value was ≤ 0.2.

As for VRAD, the “one-hybrid fitness for binding parS DNA” value is ≤ 0.2.

Consider WREW, for which the “one-hybrid fitness for binding parS DNA” value is ≤ 0.2.

The values above are taken from a collection of fitness landscapes (doi:10.1016/j.celrep.2020.107928).
